In the supplement of paper PMC8728848:
This is one part of the list.

Columns and labels:
Assay in all cases: glycan array binding signal (z-score within array); higher = stronger binding
Conditions in all cases: glycan notation: IUPAC condensed, linker removed
[1] = target: GlcNAc(a1-4)Gal(b1-3)GlcNAc
Summary of the method: (§1)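 Glycan array binding is given as a within-array Z-score, which can be read as non-binding when negative. The arrays, 3228 of them, came from the Consortium for Functional Glycomics database and were retained only where the protein sequence was available. Z-scores were averaged across arrays of the same protein sequence at different concentrations or buffers and across linkers.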

[2] = target: GlcNAc(a1-4)Gal(b1-4)GalNAc
Summary of the method: as §1

[3] = target: GlcNAc(a1-4)Gal(b1-4)GlcNAc
Summary of the method: as §1

[4] = target: GlcNAc(a1-4)Gal(b1-4)GlcNAc(b1-3)Gal(b1-4)Glc
Summary of the method: as §1

[5] = target: GlcNAc(a1-4)Gal(b1-4)GlcNAc(b1-3)Gal(b1-4)GlcNAc
Summary of the method: as §1

[6] = target: GlcNAc(a1-4)Gal(b1-4)GlcNAc(b1-3)Gal(b1-4)GlcNAc(b1-3)Gal(b1-4)GlcNAc
Summary of the method: as §1

[7] = target: GlcNAc(a1-4)Gal(b1-4)GlcNAc(b1-3)Gal(b1-4)[Fuc(a1-3)]GlcNAc(b1-3)Gal(b1-4)[Fuc(a1-3)]GlcNAc
Summary of the method: as §1

[8] = target: GlcNAc(a1-6)Gal(b1-4)GlcNAc
Summary of the method: as §1

[9] = target: GlcNAc(b1-2)Gal(b1-3)GalNAc
Summary of the method: as §1

[10] = target: GlcNAc(b1-2)Man(a1-3)[GlcNAc(b1-2)Man(a1-6)]Man(b1-4)GlcNAc(b1-4)GlcNAc
Summary of the method: as §1

[11] = target: GlcNAc(b1-2)Man(a1-3)[GlcNAc(b1-2)Man(a1-6)]Man(b1-4)GlcNAc(b1-4)[Fuc(a1-6)]GlcNAc
Summary of the method: as §1

[12] = target: GlcNAc(b1-2)Man(a1-3)[GlcNAc(b1-4)][GlcNAc(b1-2)Man(a1-6)]Man(b1-4)GlcNAc(b1-4)GlcNAc
Summary of the method: as §1

[13] = target: GlcNAc(b1-2)Man(a1-3)[GlcNAc(b1-4)][GlcNAc(b1-2)Man(a1-6)]Man(b1-4)GlcNAc(b1-4)[Fuc(a1-6)]GlcNAc
Summary of the method: as §1

[14] = target: GlcNAc(b1-2)[GlcNAc(b1-4)]Man(a1-3)[GlcNAc(b1-2)Man(a1-6)]Man(b1-4)GlcNAc(b1-4)GlcNAc
Summary of the method: as §1

[15] = target: GlcNAc(b1-2)[GlcNAc(b1-4)]Man(a1-3)[GlcNAc(b1-4)][GlcNAc(b1-2)Man(a1-6)]Man(b1-4)GlcNAc(b1-4)GlcNAc
Summary of the method: as §1

[16] = target: GlcNAc(b1-2)[GlcNAc(b1-4)]Man(a1-3)[GlcNAc(b1-4)][GlcNAc(b1-2)[GlcNAc(b1-6)]Man(a1-6)]Man(b1-4)GlcNAc(b1-4)GlcNAc
Summary of the method: as §1

[17] = target: GlcNAc(b1-2)[GlcNAc(b1-4)]Man(a1-3)[GlcNAc(b1-4)][GlcNAc(b1-2)[GlcNAc(b1-6)]Man(a1-6)]Man(b1-4)GlcNAc(b1-4)[Fuc(a1-6)]GlcNAc
Summary of the method: as §1

[18] = target: GlcNAc(b1-2)[GlcNAc(b1-6)]Man(a1-6)[GlcNAc(b1-2)Man(a1-3)]Man(b1-4)GlcNAc(b1-4)GlcNAc
Summary of the method: as §1

[19] = target: GlcNAc(b1-2)[GlcNAc(b1-6)]Man(a1-6)[GlcNAc(b1-2)Man(a1-3)]Man(b1-4)GlcNAc(b1-4)[Fuc(a1-6)]GlcNAc
Summary of the method: as §1

[20] = target: GlcNAc(b1-2)[GlcNAc(b1-6)]Man(a1-6)[GlcNAc(b1-4)][GlcNAc(b1-2)Man(a1-3)]Man(b1-4)GlcNAc(b1-4)GlcNAc
Summary of the method: as §1

[21] = target: GlcNAc(b1-3)Fuc
Summary of the method: as §1

[22] = target: GlcNAc(b1-3)Gal
Summary of the method: as §1

[23] = target: GlcNAc(b1-3)Gal(b1-3)GalNAc
Summary of the method: as §1

[24] = target: GlcNAc(b1-3)Gal(b1-4)Glc
Summary of the method: as §1

[25] = target: GlcNAc(b1-3)Gal(b1-4)GlcNAc
Summary of the method: as §1

[26] = target: GlcNAc(b1-3)Gal(b1-4)GlcNAc(b1-2)Man(a1-3)[GlcNAc(b1-3)Gal(b1-4)GlcNAc(b1-2)Man(a1-6)]Man(b1-4)GlcNAc(b1-4)GlcNAc
Summary of the method: as §1

[27] = target: GlcNAc(b1-3)Gal(b1-4)GlcNAc(b1-2)Man(a1-3)[GlcNAc(b1-3)Gal(b1-4)GlcNAc(b1-2)Man(a1-6)]Man(b1-4)GlcNAc(b1-4)[Fuc(a1-6)]GlcNAc
Summary of the method: as §1

[28] = target: GlcNAc(b1-3)Gal(b1-4)GlcNAc(b1-2)[GlcNAc(b1-3)Gal(b1-4)GlcNAc(b1-6)]Man(a1-6)[GlcNAc(b1-3)Gal(b1-4)GlcNAc(b1-2)Man(a1-3)]Man(b1-4)GlcNAc(b1-4)GlcNAc
Summary of the method: as §1

[29] = target: GlcNAc(b1-3)Gal(b1-4)GlcNAc(b1-3)Gal(b1-4)GlcNAc
Summary of the method: as §1

[30] = target: GlcNAc(b1-3)Gal(b1-4)GlcNAc(b1-3)Gal(b1-4)GlcNAc(b1-2)Man(a1-3)[GlcNAc(b1-3)Gal(b1-4)GlcNAc(b1-3)Gal(b1-4)GlcNAc(b1-2)Man(a1-6)]Man(b1-4)GlcNAc(b1-4)GlcNAc
Summary of the method: as §1

[31] = target: GlcNAc(b1-3)Gal(b1-4)GlcNAc(b1-3)Gal(b1-4)GlcNAc(b1-2)Man(a1-3)[GlcNAc(b1-3)Gal(b1-4)GlcNAc(b1-3)Gal(b1-4)GlcNAc(b1-2)Man(a1-6)]Man(b1-4)GlcNAc(b1-4)[Fuc(a1-6)]GlcNAc
Summary of the method: as §1

[32] = target: GlcNAc(b1-3)Gal(b1-4)GlcNAc(b1-3)Gal(b1-4)GlcNAc(b1-2)[GlcNAc(b1-3)Gal(b1-4)GlcNAc(b1-3)Gal(b1-4)GlcNAc(b1-6)]Man(a1-6)[GlcNAc(b1-3)Gal(b1-4)GlcNAc(b1-3)Gal(b1-4)GlcNAc(b1-2)Man(a1-3)]Man(b1-4)GlcNAc(b1-4)[Fuc(a1-6)]GlcNAc
Summary of the method: as §1

[33] = target: GlcNAc(b1-3)Gal(b1-4)GlcNAc(b1-3)Gal(b1-4)GlcNAc(b1-3)Gal(b1-4)GlcNAc(b1-2)Man(a1-3)[GlcNAc(b1-3)Gal(b1-4)GlcNAc(b1-3)Gal(b1-4)GlcNAc(b1-3)Gal(b1-4)GlcNAc(b1-2)Man(a1-6)]Man(b1-4)GlcNAc(b1-4)GlcNAc
Summary of the method: as §1

[34] = target: GlcNAc(b1-3)Gal(b1-4)GlcNAc(b1-3)Gal(b1-4)GlcNAc(b1-3)Gal(b1-4)GlcNAc(b1-2)Man(a1-3)[GlcNAc(b1-3)Gal(b1-4)GlcNAc(b1-3)Gal(b1-4)GlcNAc(b1-3)Gal(b1-4)GlcNAc(b1-2)Man(a1-6)]Man(b1-4)GlcNAc(b1-4)[Fuc(a1-6)]GlcNAc
Summary of the method: as §1

[35] = target: GlcNAc(b1-3)Gal(b1-4)GlcNAc(b1-3)Gal(b1-4)GlcNAc(b1-3)Gal(b1-4)GlcNAc(b1-2)[GlcNAc(b1-3)Gal(b1-4)GlcNAc(b1-3)Gal(b1-4)GlcNAc(b1-3)Gal(b1-4)GlcNAc(b1-6)]Man(a1-6)[GlcNAc(b1-3)Gal(b1-4)GlcNAc(b1-3)Gal(b1-4)GlcNAc(b1-3)Gal(b1-4)GlcNAc(b1-2)Man(a1-3)]Man(b1-4)GlcNAc(b1-4)[Fuc(a1-6)]GlcNAc
Summary of the method: as §1

[36] = target: GlcNAc(b1-3)Gal(b1-4)GlcNAc(b1-3)Gal(b1-4)GlcNAc(b1-3)Gal(b1-4)GlcNAc(b1-3)Gal(b1-4)GlcNAc(b1-2)Man(a1-3)[GlcNAc(b1-3)Gal(b1-4)GlcNAc(b1-3)Gal(b1-4)GlcNAc(b1-3)Gal(b1-4)GlcNAc(b1-3)Gal(b1-4)GlcNAc(b1-2)Man(a1-6)]Man(b1-4)GlcNAc(b1-4)GlcNAc
Summary of the method: as §1

[37] = target: GlcNAc(b1-3)Gal(b1-4)GlcNAc(b1-3)Gal(b1-4)GlcNAc(b1-3)Gal(b1-4)GlcNAc(b1-3)Gal(b1-4)GlcNAc(b1-2)Man(a1-3)[GlcNAc(b1-3)Gal(b1-4)GlcNAc(b1-3)Gal(b1-4)GlcNAc(b1-3)Gal(b1-4)GlcNAc(b1-3)Gal(b1-4)GlcNAc(b1-2)Man(a1-6)]Man(b1-4)GlcNAc(b1-4)[Fuc(a1-6)]GlcNAc
Summary of the method: as §1

[38] = target: GlcNAc(b1-3)Gal(b1-4)GlcNAc(b1-3)Gal(b1-4)GlcNAc(b1-3)Gal(b1-4)GlcNAc(b1-3)Gal(b1-4)GlcNAc(b1-2)[GlcNAc(b1-3)Gal(b1-4)GlcNAc(b1-3)Gal(b1-4)GlcNAc(b1-3)Gal(b1-4)GlcNAc(b1-3)Gal(b1-4)GlcNAc(b1-6)]Man(a1-6)[GlcNAc(b1-3)Gal(b1-4)GlcNAc(b1-3)Gal(b1-4)GlcNAc(b1-3)Gal(b1-4)GlcNAc(b1-3)Gal(b1-4)GlcNAc(b1-2)Man(a1-3)]Man(b1-4)GlcNAc(b1-4)[Fuc(a1-6)]GlcNAc
Summary of the method: as §1

B1: Cohesin-hDECTIN-1 (Homo sapiens) (protein)
chain: LDITSHHHHHHDDLDAVRIKVDTVNAKPGDTVRIPVRFSGIPSKGIANCDFVYSYDPNVLEIIEIEPGDIIVDPNPDKSFDTAVYPDRKIIVFLFAEDSGTGAYAITKDGVFATIVAKVKEGAPNGLSVIKFVEVGGFANNDLVEQKTQFFDGGVNVGDTTEPATPTTPVTTPTTTDDLDAASSSPCPPNWIIYEKSCYLFSMSLNSWDGSKRQCWQLGSNLLKIDSSNELGFIVKQVSSQPDNSFWIGLSRPQTEVPWLWEDGSTFSSNLFQIRTTATQENPSPNCVWIHVSVIYDQLCSVPSYSICEKKFM
[1]
  glycan array binding signal (z-score): -0.52
[2]
  glycan array binding signal (z-score): -0.313
[3]
  glycan array binding signal (z-score): -0.565
[4]
  glycan array binding signal (z-score): -0.307
[5]
  glycan array binding signal (z-score): -0.476
[6]
  glycan array binding signal (z-score): -0.523
[7]
  glycan array binding signal (z-score): -0.178
[8]
  glycan array binding signal (z-score): -0.374
[9]
  glycan array binding signal (z-score): -0.185
[10]
  glycan array binding signal (z-score): -0.418
[11]
  glycan array binding signal (z-score): -0.032
[12]
  glycan array binding signal (z-score): -0.224
[13]
  glycan array binding signal (z-score): -0.239
[14]
  glycan array binding signal (z-score): -0.267
[15]
  glycan array binding signal (z-score): -0.311
[16]
  glycan array binding signal (z-score): -0.117
[17]
  glycan array binding signal (z-score): -0.586
[18]
  glycan array binding signal (z-score): -0.373
[19]
  glycan array binding signal (z-score): -0.174
[20]
  glycan array binding signal (z-score): -0.546
[21]
  glycan array binding signal (z-score): -0.594
[22]
  glycan array binding signal (z-score): -0.42
[23]
  glycan array binding signal (z-score): -0.12
[24]
  glycan array binding signal (z-score): -0.428
[25]
  glycan array binding signal (z-score): -0.441
[26]
  glycan array binding signal (z-score): -0.421
[27]
  glycan array binding signal (z-score): -0.212
[28]
  glycan array binding signal (z-score): -0.124
[29]
  glycan array binding signal (z-score): -0.185
[30]
  glycan array binding signal (z-score): 0.351
[31]
  glycan array binding signal (z-score): -0.282
[32]
  glycan array binding signal (z-score): -0.434
[33]
  glycan array binding signal (z-score): -0.567
[34]
  glycan array binding signal (z-score): -0.138
[35]
  glycan array binding signal (z-score): -0.474
[36]
  glycan array binding signal (z-score): 0.599
[37]
  glycan array binding signal (z-score): 0.226
[38]
  glycan array binding signal (z-score): -0.496
